Source: PubChem BioAssay AID1345082 (National Center for Advancing Translational Sciences (NCATS), 2018)
About 4,000 (4.3%) of roughly 94,000 compounds were called active. Inconclusive results, whose numbers are uncertain, are shown with a selection of clear calls. Calls follow the shape of the dose curve; as a rule, active = well fitted inhibition curve with a large enough effect; inconclusive = small, poorly fitted or top-dose-only effect; inactive = no such curve, though single readings can be large or run the other way. A potency beside an inconclusive call is a rough fit, not a confirmed value.

test: Cytotoxic Profiling in NIH 3T3 Cell Line of Diverse Libraries Using Quantitative High-Throughput Screening; settings: NIH 3T3 viability, CellTiter-Glo ATP luminescence, 48-72 h; activity change, negative = cytotoxicity: at 96.7 µM (top of the series) unless noted; series mostly up to 96.7 µM; also: nearly all actives have a fitted effect of over 55% in size
Procedure, shortened: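 Viability of NIH 3T3 cells after 48 or 72 hr compound treatment at 37 °C was assessed by CellTiter-Glo, with luminescence imaged following a 10 min room-temperature step.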
% is scaled to controls: 0 for no effect and ±100 for the full control effect; potency is read from the fitted curve at half-maximal effect; tags tell the direction and shape of the fitted curve.

Structure (SMILES) | outcome | Potency | activity change, negative = cytotoxicity
O=C([C@@H]1C[C@H](F)CN1C(=O)c1ccc(Cl)cc1)N1CCCCC1 | inactive | – | –
COc1ccc(C(=O)N[C@@H]2CCC[C@@H]2C(=O)N2CCN(c3ccccc3F)CC2)cc1 | inactive | – | –
COc1ccccc1CNC(=O)c1ccc(Cn2ccn3nc4c(c3c2=O)CCCC4)cc1 | – | inconclusive: 35.5 µM [inhibitor, partial curve, poor fit] | –
O=S(=O)(c1ccccc1)N1CCCC(Cc2noc(-c3ccncc3)n2)C1 (stereo unspecified) | – | inconclusive: 50.1 µM [inhibitor, partial curve, poor fit] | –
CN1CCN(C(=O)c2cc(-c3cccc(C(F)(F)F)c3)nc3c2cnn3C)CC1 | – | active: 31.6 µM | –
O=C(c1ccccc1F)N1CCC(n2cc(-c3nc(-c4ccccc4)no3)nn2)C1 (stereo unspecified) | – | inconclusive: 44.7 µM [inhibitor, partial curve, poor fit] | –
NCc1cccc(-c2ccccc2F)c1 | – | – | inactive: -27.3% [at 138 µM]
CCOC(=O)C1CCN(C(=O)CC(c2ccc(OC)c(OC)c2)c2c[nH]c3c(CC)cccc23)CC1 (stereo unspecified) | – | inconclusive: 50.1 µM [inhibitor, partial curve, poor fit] | –
O=C(Nc1ccccc1)N1CCC(F)(c2nc(Cc3ccccc3)no2)CC1 | – | inconclusive: 39.8 µM [inhibitor, partial curve, poor fit] | –
Cc1ccc(NC(=O)N[C@H]2C[C@@](O)(C(=O)N[C@H](C)C(N)=O)C[C@@H](O)[C@@H]2O)cc1 | – | – | inactive: -0.519% [at 174 µM]
Cc1ccc(NC(=O)c2cc(NC(=O)C3CC3)cc3nc(C)ccc23)cc1 | – | inconclusive: 44.7 µM [inhibitor, partial curve, poor fit] | –
CCCN1CCN(C(=O)c2c(C)oc3c2CN(Cc2ccc(C)cc2)CC3)CC1 | – | inconclusive: 39.8 µM [inhibitor, partial curve, poor fit] | –
CC(Oc1ccccc1)C(=O)N1CC(Oc2ccccc2-c2nc(-c3ccccc3)no2)C1 (stereo unspecified) | – | active: 35.5 µM | –
Cc1ccc(C2Cn3nnc(C(=O)N4CCC(C(=O)NCc5cccnc5)CC4)c3CO2)cc1 (stereo unspecified) | – | – | inactive: -2.07%
COc1ccc(CCN2Cc3cc(NC(=O)c4ccccc4)ccc3OCC2=O)cc1 | – | inconclusive: 50.1 µM [inhibitor, partial curve, poor fit] | –
Fc1cccc(CN2CCC(Cc3nc(-c4ccccc4)n[nH]3)C2)c1 (stereo unspecified) | – | inconclusive: 50.1 µM [inhibitor, single point] | –
COc1ccc(CNC(=O)CC[C@H]2CNC(=O)[C@@H]3[C@@H](CCN3C3CCOCC3)N2C)cc1 | – | – | inactive: 1.52%
CN(C)C(=O)NC1CCN(Cc2cccc(-c3cccs3)c2)CC1 | – | inconclusive: 89.1 µM [inhibitor, partial curve, poor fit] | –
O=C(NCc1ccc(Cl)cc1)c1ccc2nnc(-c3ccc(F)cc3)n2c1 | – | inconclusive: 44.7 µM [inhibitor, partial curve] | –
O=C(NC1CCN(Cc2cccc(-c3cccs3)c2)CC1)c1ccc(C(F)(F)F)cc1 | – | inconclusive: 56.2 µM [inhibitor, partial curve, poor fit] | –
COc1ccc(-c2[nH]nc3ncc(-c4cccnc4OC)nc23)c(C)c1 | – | inconclusive: 50.1 µM [inhibitor, partial curve, poor fit] | –

Structure (SMILES) | outcome | Potency | activity change, negative = cytotoxicity
COc1ccc(Nc2ccnc(N3CCN([S+](=O)([O-])c4cccs4)CC3)n2)cc1 | – | inconclusive: 35.5 µM [inhibitor, partial curve, poor fit] | –
CC(C)Cn1c(=O)c(C(=O)N2CCN([S+](=O)([O-])c3cccc(C(F)(F)F)c3)CC2)nc2cccnc21 | – | inconclusive: 50.1 µM [inhibitor, partial curve, poor fit] | –
CNC(=O)CCn1ncc2cc(OC3CCc4cccc(-c5c(C)noc5C)c43)ccc21 (stereo unspecified) | – | inconclusive: 22.4 µM [inhibitor, full curve, poor fit] | –
Cc1nn2c(c1-c1ccccc1C(C)C)N(C(=O)Cc1ccc(O)cc1)CCC2 | – | inconclusive: 35.5 µM [inhibitor, partial curve, poor fit] | –
CCO[C@H]1CN(c2cc(C)nc(-c3ccccc3O)n2)C[C@@H]1O | – | inconclusive: 50.1 µM [inhibitor, partial curve, poor fit] | –
O=C(c1ccc(F)cc1)N1CCN(Cc2ccccc2-c2ccccc2F)CC1 | – | inconclusive: 50.1 µM [inhibitor, partial curve, poor fit] | –
Cc1nc([C@@H]2CN(S(=O)(=O)c3ccc4c(c3)CCC4)C[C@H]2C(N)=O)n[nH]1 | inactive | – | –
O=C1NCCCCCCN(Cc2ccc(F)cc2F)[C@H]2CCC[C@@H]12 | – | inconclusive: 70.8 µM [inhibitor, single point] | –
Cc1noc(C)c1-c1cc2cc(C(C)C)oc2c(NCCN2CCOCC2)n1 | – | inconclusive: 79.4 µM [inhibitor, partial curve, poor fit] | –
CCc1ccc(C(=O)N2CCC(Oc3ccc(C(N)=O)cn3)CC2)cc1 | – | inconclusive: 44.7 µM [inhibitor, partial curve, poor fit] | –
COc1ccccc1-c1cccc(C(=O)N2CCN(C(=O)Cc3ccccn3)CC2)c1 | – | – | inactive: -27.2%
CN(Cc1ccncc1)C1CCOc2ccccc21 (stereo unspecified) | – | inconclusive: 28.2 µM [inhibitor, full curve] | –
O=C1c2c(nc(CNc3ccc(F)cc3)n2Cc2ccccc2)NCCN1Cc1ccccc1 | – | inconclusive: 44.7 µM [inhibitor, partial curve, poor fit] | –
CCCc1noc(-c2cn(C3CCN(C(=O)c4cccc(C#N)c4)CC3)nn2)n1 | – | inconclusive: 25.1 µM [inhibitor, full curve, poor fit] | –
COc1ccccc1CN1Cc2cc(NC(=O)c3ccc(OC)c(OC)c3)ccc2OC(C)C1=O (stereo unspecified) | – | inconclusive: 50.1 µM [inhibitor, partial curve, poor fit] | –
O=C1CC(c2ccccc2)N(C(=O)C2CC2)CCCN(C(=O)c2ccsc2)CCN1 (stereo unspecified) | – | – | inactive: -7.61%
Cc1cc(C)cc(-c2ccc(CN3CCCC(N[S+](=O)([O-])c4c(C)noc4C)C3)cc2)c1 (stereo unspecified) | – | active: 35.5 µM | –
CCOc1cc(C(=O)N2CCC[C@H]2c2nc(-c3ccc(C)cc3)no2)cc(OCC)c1OCC | – | inconclusive: 56.2 µM [inhibitor, partial curve, poor fit] | –
CN1CCN(CC(C)(CN)c2ccccn2)CC1 (stereo unspecified) | inactive [at 138 µM] | – | –
COc1ccc(CN2C[C@H]3CN(Cc4ccc(C(F)(F)F)cc4)CCN3C2=O)cc1 | – | inconclusive: 56.2 µM [inhibitor, partial curve, poor fit] | –
COc1ccc(-c2ccccc2C(=O)NCc2ccccn2)nn1 | – | – | inactive: -7.35% [at 138 µM]

Structure (SMILES) | outcome | Potency | activity change, negative = cytotoxicity
COc1ccc(CN2C[C@H]3CN(Cc4c[nH]c5ccccc45)CCN3C2=O)cc1 | – | inconclusive: 112 µM [inhibitor, single point] | –
COc1ccc(-n2nc(C3CCN(Cc4ccc(C(F)(F)F)cc4)CC3)[nH]c2=O)cc1 | – | inconclusive: 50.1 µM [inhibitor, partial curve, poor fit] | –
CCc1ccc(C(=O)N2CCC(Cc3nc(C(C)C)no3)CC2)cc1 | – | inconclusive: 10 µM [inhibitor, full curve, poor fit] | –
Cc1noc(C)c1-c1cc2cc(CN(C)C)oc2c(Nc2cccc([S+](C)(=O)[O-])c2)n1 | – | active: 44.7 µM | –
CCn1c2c(c(=O)n1-c1ccccc1)CCN(C(=O)c1scnc1C)C2 | – | inconclusive: 89.1 µM [inhibitor, partial curve, poor fit] | –
Cc1nn2c(c1-c1ccccc1-c1ccccc1)N(C(=O)c1ccnn1C)CCC2 | – | inconclusive: 112 µM [inhibitor, single point] | –
O=C(c1cccc(Cl)c1)N1CCC(c2nn(-c3ccc(Cl)cc3)c(=O)[nH]2)CC1 | – | inconclusive: 50.1 µM [inhibitor, partial curve, poor fit] | –
Cc1ccc(C2Cn3nnc(C(=O)NCc4ccc(F)cc4Cl)c3CO2)cc1 (stereo unspecified) | – | inconclusive: 44.7 µM [inhibitor, partial curve, poor fit] | –
Cc1ccc(OCC(=O)N2CCC3(CC2)CC(N(C(=O)NC(C)C)C2CC2)CCO3)cc1 (stereo unspecified) | – | inconclusive: 70.8 µM [inhibitor, single point] | –
CS(=O)(=O)N1C[C@H]2CCN(Cc3c(F)cccc3Cl)C[C@H]21 | – | – | inactive: -27.3%
CC(C)c1ccc([S+](=O)([O-])c2nnn3c2nc(NCc2ccncc2)c2ccccc23)cc1 | – | active: 39.8 µM | –
CC(C)(C)OCC1CN(Cc2cccc(F)c2)[S+](=O)([O-])c2cccnc2O1 (stereo unspecified) | – | – | inactive: -28.4% [at 46.1 µM]
COc1ccccc1-c1ccc(CN2CCC(NC(=O)C3CCCC3)C2)cc1 (stereo unspecified) | – | inconclusive: 44.7 µM [inhibitor, partial curve, poor fit] | –
COCCNC(=O)N1CCN(Cc2ccco2)CC(C(=O)O)C1 (stereo unspecified) | – | – | inactive: -9.95%
O=C(NCc1ccncc1)c1nc2c(o1)CCN(Cc1ccccc1)CC2 | – | – | inactive: -26.4% [at 138 µM]
Cc1ccccc1-n1nc(C)c(CCC(=O)NCC2CC2)c1Oc1cccc(F)c1 | – | inconclusive: 56.2 µM [inhibitor, partial curve, poor fit] | –
CCOc1ccc(NC(=O)N2CCc3cc(OC)c(OC)cc3C2CNC(=O)c2ccco2)cc1 (stereo unspecified) | – | inconclusive: 50.1 µM [inhibitor, single point] | –
FC(F)(F)c1ccc2nc([C@H]3CCN(Cc4ccc(Cl)cc4)C3)[nH]c2c1 | – | inconclusive: 22.4 µM [inhibitor, full curve, poor fit] | –
c1ccc(-c2nc3c(c(N4CCNCC4)n2)CCC3)cc1 | – | inconclusive: 31.6 µM [inhibitor, full curve] | –
